Results: PubChem BioAssay AID445 (National Center for Advancing Translational Sciences (NCATS), 2006)
Among all 110,000 compounds or so, about 40 (0.04%) were called active. Inconclusive means that the source gave no clear call. Such entries were picked first, then a sample of the others. Calls follow the shape of the dose curve; as a rule, active = well fitted curve in the direction sought with a large enough effect in the signal ratio (not every such curve was filed as active); inconclusive = small, poorly fitted or top-dose-only effect, or a change in a side signal; inactive = flat fitted curve, though single readings scatter; the % refers to the signal ratio. Potencies beside an inconclusive call are fits to weak or partial responses and may not hold up.

Experiment: IkB Signaling;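 as to IkBa stabilization activation: 0% = basal untreated cells and 100% = reference inhibitor full response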
Conditions: ABC-DLBCL IkBa-CBG/CBR dual luciferase ratio (green luciferase fused to IkBa over red control in OCI-Ly3 lymphoma cells), 4 h; IkBa stabilization activation: at 57.1 µM (top of the series), scaled: untreated 0%, proteasome inhibitor 100% unless noted
Summary of the method: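 Luminescence ratio of IκBα-fused green versus native red beetle luciferase in OCI-Ly3 cells, 4 h post-doxycycline with compound; red signal alone, scaled from basal (0%) to zero light (-100%), flagged nonspecific or cytotoxic effects.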
Potency is read from the fitted curve at half-maximal effect.

Row | SMILES | IkBa stabilization activation | Potency
1 | COc1ccccc1NC(=O)c1ccc2c(Cl)c3c(nc2c1)CCCC3 | inconclusive: 13.4% [signal inhibitor] | –
2 | CCOC(=O)c1c(C)[nH]c(C)c1S(=O)(=O)N1CCC(C(=O)N2CCN(c3ccc(Cl)cc3)CC2)CC1 | inconclusive: -0.0831% [signal inhibitor] | –
3 | CC1=C(c2ccc(C)c(C)c2)S(=O)(=O)N=C1N1CCC(C(=O)NCCc2ccc(Cl)cc2)CC1 | inactive: -0.404% | –
4 | CCOc1ccc(NC(=O)N2CC=C(c3c[nH]c4ccccc34)CC2)cc1 | inconclusive: 3.65% [signal inhibitor] | –
5 | COc1nc(-c2ccc(C)cc2)ccc1-c1noc(-c2ccccc2Br)n1 | inactive: 4.36% | –
6 | CCCCOC(=O)CSc1nnc(-c2ccccc2)o1 | inconclusive: -3.23% [signal inhibitor] | –
7 | CC(=O)Nc1nonc1-c1nnc(SCC(=O)Nc2cc(C)cc(C)c2)n1C | inconclusive: 1.97% [signal inhibitor] | –
8 | Cc1ccc(C)c(N2CCN(C(=O)CN3CCSc4ccc(S(=O)(=O)N(C)C)cc43)CC2)c1 | inconclusive: -1.03% [signal inhibitor] | –
9 | COc1ccccc1CNc1ccc(-c2nc(C)no2)cc1[N+](=O)[O-] | inconclusive: -0.691% [signal inhibitor] | –
10 | O=C(c1cnccn1)N1CCc2ccccc21 | inactive: -0.0117% | –
11 | COc1cccc(NC(=O)/C(C#N)=C\c2cn(Cc3ccc(C)cc3)c3ccccc23)c1 | inconclusive: 9.83% [signal inhibitor] | –
12 | O=C(c1ccc(C(F)(F)F)cc1)N1CCC(c2nc(-c3ccc(S(=O)(=O)N4CCCC4)cc3)no2)CC1 | inconclusive: 0.962% [signal inhibitor] | –
13 | COc1cc2c(cc1O)C(SC)=NC(C)(C)C2 | inconclusive: -0.0744% | –
14 | Cc1cccc(C)c1NC(=O)c1csc2c1CCCC2 | inconclusive: 2.28% [signal inhibitor] | –
15 | COC(=O)c1sccc1NC(=O)c1ccc(OC)cc1 | inactive: -1.44% | –
16 | O=C(NCCCc1nc2ccccc2n1Cc1cccc(Cl)c1)c1ccco1 | inconclusive: 0.0415% [signal inhibitor] | –
17 | O=C(CN1C(=O)C2(OCCCO2)c2ccccc21)NCc1ccccc1 | inactive: 0.139% | –
18 | Cc1cccnc1NC(=O)COc1ccc2oc3c(c2c1)CCCC3 | inconclusive: 12.4% [signal inhibitor] | –
19 | Cc1ccc(-n2ncc3c(NCCCc4ccccc4)ncnc32)cc1 | inactive: 2.47% | –
20 | COc1ccc(NC(=O)CSc2nc3nc(C)c(Cc4ccc(C)cc4)c(C)n3n2)cc1OC | inactive: -1.38% | –
21 | CCn1c(SCc2nc3ccccc3s2)nnc1-c1cccs1 | inconclusive: 11% [signal inhibitor] | –
22 | Cc1ccccc1NC(=O)c1ccc2nc(Cc3ccccc3)oc2c1 | inconclusive: 4.12% [signal inhibitor] | –
23 | CC(=O)C1=C(C)NC(SCC(=O)c2ccc(Cl)cc2Cl)=C(C#N)C1c1ccco1 (stereo unspecified) | inconclusive: -2.02% [signal inhibitor] | –

Row | SMILES | IkBa stabilization activation | Potency
24 | CN(Cc1ccccc1)c1nc2c(c(=O)[nH]c(=O)n2C)n1C | inactive: 0.258% | –
25 | C=Cc1ccc(Cn2c(C(=O)O)c(CNCc3cccs3)c3ccc(C)cc32)cc1 | inconclusive: -1.84% [signal inhibitor] | –
26 | COc1ccccc1C(=O)Nc1c(C(=O)N(CCN(C)C)Cc2ccco2)oc2ccccc12 | inconclusive: 0.847% [signal inhibitor] | –
27 | Cn1c(SCc2ccc(F)cc2)nc2c([nH]c3ccccc32)c1=O | inconclusive: -1.81% [signal inhibitor] | –
28 | CCCCc1cc(=O)oc2cc(C)c3c(C)coc3c12 | inactive: -2.74% | –
29 | COc1cccc(CNC(=O)C2CCN(c3nc4ccc(Cl)cc4[nH]3)CC2)c1 | inconclusive: -0.646% [signal inhibitor] | –
30 | CSc1ncc(Cl)c(C(=O)Nc2ccc(S(=O)(=O)N3CCC(C)CC3)cc2)n1 | inactive: 0.118% | –
31 | Cc1ccc(C2c3c(-c4ccccc4O)n[nH]c3C(=O)N2CCCO)cc1 (stereo unspecified) | inconclusive: 0.977% [signal inhibitor] | –
32 | CCOC(=O)c1cccc(NC(=O)c2ccc3c(c2)nnn3C2CCCC2)c1 | inconclusive: -1.68% [signal inhibitor] | –
33 | CC(C)c1nc(SCc2ccccn2)c2c(=O)n(C)c(=O)n(C)c2n1 | inactive: 2.78% | –
34 | O=C(Cn1c(-c2ccccc2)noc1=O)Nc1ccc(S(=O)(=O)N2CCOCC2)cc1 | inactive: -0.357% | –
35 | Cc1ccc(Cn2c(C(=O)Nc3cccc(Cl)c3)cc3sccc32)cc1 | inconclusive: 2.02% [signal inhibitor] | –
36 | COc1ccc2c(c1)CC(NC(=O)Nc1cc(Cl)ccc1OC)CO2 (stereo unspecified) | inconclusive: -0.973% [signal inhibitor] | –
37 | CSc1nc(C)cc(Nc2c(C)cc(C)cc2C)n1 | inconclusive: -0.0167% [signal inhibitor] | –
38 | COc1cccc(-c2nc(NCc3cnc(C)cn3)c3ccccc3n2)c1 | inactive: -1.69% [at 11.4 µM, scaled: untreated 0%, proteasome inhibitor 100%] | –
39 | COC(=O)c1ccc(CSc2nc(C(F)(F)F)c3c(c2C#N)CCC3)o1 | – | inconclusive: 31.6 µM [rising, single point]
40 | COc1cccc(C(=O)Nc2ccc(Cl)c(-c3nc4ccccc4[nH]3)c2)c1 | inconclusive: 1.99% [signal inhibitor] | –
41 | O=C(c1cc(-c2ccc(O)cc2)on1)N1CCc2ccccc2C1 | inconclusive: -3.93% [signal inhibitor] | –
42 | Cc1ccc(-c2nn3c(C)nnc3c3ccccc23)cc1S(=O)(=O)N1CCN(CCO)CC1 | inactive: 8.87% | –
43 | CCc1ccc(OCCCSc2nc(-c3ccc(C(C)(C)C)cc3)nc3cc(=O)[nH]n23)cc1 | inactive: 0.939% | –
44 | Fc1ccc2c(Cl)c(-c3nnc(-c4cccs4)o3)sc2c1 | inconclusive: 15.6% [signal inhibitor] | –
45 | CC1=C(C(=O)Nc2ccccc2C)C(c2ccncc2)n2nc(SCc3ccccc3)nc2N1 (stereo unspecified) | inconclusive: 6.76% [signal inhibitor] | –
46 | CCN1CCN(c2cc(C)c3cc(NC(=O)c4cccc(C(F)(F)F)c4)ccc3n2)CC1 | inconclusive: -1.75% [signal inhibitor] | –
